We go through nine molecules from publication PMC9911399, “Two distinct binding modes provide the RNA-binding protein RbFox with extraordinary sequence specificity”.

Changes are numbered by the printed parent chain; changes in the protein carry UniProt numbers. This is one part of the list.

First the molecules themselves.
T1: RBFOX1 RRM (Homo sapiens, UniProt Q9NWB1 109-208)
T1 sequence: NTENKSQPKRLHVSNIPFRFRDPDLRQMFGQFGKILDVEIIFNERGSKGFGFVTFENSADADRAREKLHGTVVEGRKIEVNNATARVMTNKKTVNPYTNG

B1: GGGACAA (DNA:RNA)
RNA: GGGAGACCGGAAUUCAGAUUGUCCGGGACAAUUAAAUCCCGUCGUAGCCACCA
DNA 1: CAATCTGAATTCCGGTCTCCC
DNA 2: TGGTGGCTACGACGGGATT
B2: AGGGUAU (DNA:RNA)
RNA: B1 RNA with G25A, A28G, C29U, A31U
DNA 1: CAATCTGAATTCCGGTCTCCC
DNA 2: TGGTGGCTACGACGGGATT
B3: GUCUUUC (DNA:RNA)
RNA: B1 RNA with G26U, G27C, A28U, C29U, A30U, A31C
DNA 1: CAATCTGAATTCCGGTCTCCC
DNA 2: TGGTGGCTACGACGGGATT
B4: UACACCC (DNA:RNA)
RNA: B1 RNA with G25U, G26A, G27C, A30C, A31C
DNA 1: CAATCTGAATTCCGGTCTCCC
DNA 2: TGGTGGCTACGACGGGATT
B5: CAGCCAC (DNA:RNA)
RNA: B1 RNA with G25C, G26A, A28C, A31C
DNA 1: CAATCTGAATTCCGGTCTCCC
DNA 2: TGGTGGCTACGACGGGATT
B6: AGCCUAU (DNA:RNA)
RNA: B1 RNA with G25A, G27C, A28C, C29U, A31U
DNA 1: CAATCTGAATTCCGGTCTCCC
DNA 2: TGGTGGCTACGACGGGATT
B7: GAAUUUA (DNA:RNA)
RNA: B1 RNA with G26A, G27A, A28U, C29U, A30U
DNA 1: CAATCTGAATTCCGGTCTCCC
DNA 2: TGGTGGCTACGACGGGATT
B8: AUCAUUG (DNA:RNA)
RNA: B1 RNA with G25A, G26U, G27C, C29U, A30U, A31G
DNA 1: CAATCTGAATTCCGGTCTCCC
DNA 2: TGGTGGCTACGACGGGATT
B9: UGAUUUU (DNA:RNA)
RNA: B1 RNA with G25U, G27A, A28U, C29U, A30U, A31U
DNA 1: CAATCTGAATTCCGGTCTCCC
DNA 2: TGGTGGCTACGACGGGATT

For the test, the target named is T1, RBFOX1 RRM. Put plainly: EMSA; HiTS-Eq, 1 nM pool, 10 min; buffer printed only for the single-RNA assays: 10 mM Tris pH 7.5, 150 mM NaCl, 3.4 mM EDTA, 0.001% NP-40, 30 C. The settings on record: tags: His6 N-terminal (pET28a); label: 5' 32P. In a few lines: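 These values rest on relative association constants, computed from read-count changes of each RNA species versus the control reaction and normalised to the cognate motif. Reads came from free RNA recovered by 8% native PAGE after purified RbFox RRM (wild type or mutant) at increasing concentrations was equilibrated for 10 min in 50 µL with 1 nM of a 5′-radiolabelled pool with 7 randomized nucleotides and DNA-annealed flanks.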
For orientation: In EMSA bound probe runs differently from free probe, usually more slowly.
As to B1, the binding signal is 0.0291 KA relative to UGCAUGU. To B2 belongs 0.0148 KA relative to UGCAUGU. For B3, the binding signal was 0.015 KA relative to UGCAUGU. To B4 belongs 0.00137 KA relative to UGCAUGU; to B5, 0.00328 KA relative to UGCAUGU; to B6, 0.00375 KA relative to UGCAUGU. The value for B7 was 0.00394 KA relative to UGCAUGU. For B8, the binding signal was 0.0047 KA relative to UGCAUGU. To B9 belongs 0.0194 KA relative to UGCAUGU.
